In publication PMC5753878:
No constants are given. Whether binding was seen depends on the method and setting. Binding seen in cells or lysates may run through a third protein. Some entries that bind do so weakly or less than the wild type. For some of these results: Tags and fused reporters may be left off the sequences shown.

Chains of the proteins cited; added tags and fusions are not shown. Lines headed by an entry give the natural chain unless they say otherwise; changes in a name come on top.
UniProt Q06163: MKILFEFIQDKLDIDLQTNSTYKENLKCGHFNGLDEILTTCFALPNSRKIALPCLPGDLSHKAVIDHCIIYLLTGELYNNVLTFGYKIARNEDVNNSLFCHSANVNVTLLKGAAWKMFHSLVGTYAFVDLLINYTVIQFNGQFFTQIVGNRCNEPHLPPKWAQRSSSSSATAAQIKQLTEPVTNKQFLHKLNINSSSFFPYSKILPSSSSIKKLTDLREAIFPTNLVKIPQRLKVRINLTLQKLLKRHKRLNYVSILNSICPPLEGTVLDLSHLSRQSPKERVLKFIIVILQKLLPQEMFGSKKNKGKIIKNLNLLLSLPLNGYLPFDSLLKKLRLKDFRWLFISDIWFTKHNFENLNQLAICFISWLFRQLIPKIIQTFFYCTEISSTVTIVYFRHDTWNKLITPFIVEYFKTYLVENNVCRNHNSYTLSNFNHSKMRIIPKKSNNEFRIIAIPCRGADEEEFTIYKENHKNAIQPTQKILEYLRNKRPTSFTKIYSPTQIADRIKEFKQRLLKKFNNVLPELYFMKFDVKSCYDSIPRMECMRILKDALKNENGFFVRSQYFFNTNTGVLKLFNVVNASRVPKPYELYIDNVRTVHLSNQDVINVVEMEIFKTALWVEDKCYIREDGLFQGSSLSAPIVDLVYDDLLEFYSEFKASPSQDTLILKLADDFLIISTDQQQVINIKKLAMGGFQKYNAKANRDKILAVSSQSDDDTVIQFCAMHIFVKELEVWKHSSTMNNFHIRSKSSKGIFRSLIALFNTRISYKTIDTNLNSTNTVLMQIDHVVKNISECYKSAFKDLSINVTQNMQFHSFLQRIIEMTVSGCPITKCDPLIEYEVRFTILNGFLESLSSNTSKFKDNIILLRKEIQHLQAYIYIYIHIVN
UniProt Q03096: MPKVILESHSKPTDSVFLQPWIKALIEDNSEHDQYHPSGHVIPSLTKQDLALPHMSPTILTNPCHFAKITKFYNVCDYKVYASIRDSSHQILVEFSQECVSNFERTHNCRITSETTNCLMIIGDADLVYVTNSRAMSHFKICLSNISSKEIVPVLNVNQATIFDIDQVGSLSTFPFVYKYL
UniProt P11978: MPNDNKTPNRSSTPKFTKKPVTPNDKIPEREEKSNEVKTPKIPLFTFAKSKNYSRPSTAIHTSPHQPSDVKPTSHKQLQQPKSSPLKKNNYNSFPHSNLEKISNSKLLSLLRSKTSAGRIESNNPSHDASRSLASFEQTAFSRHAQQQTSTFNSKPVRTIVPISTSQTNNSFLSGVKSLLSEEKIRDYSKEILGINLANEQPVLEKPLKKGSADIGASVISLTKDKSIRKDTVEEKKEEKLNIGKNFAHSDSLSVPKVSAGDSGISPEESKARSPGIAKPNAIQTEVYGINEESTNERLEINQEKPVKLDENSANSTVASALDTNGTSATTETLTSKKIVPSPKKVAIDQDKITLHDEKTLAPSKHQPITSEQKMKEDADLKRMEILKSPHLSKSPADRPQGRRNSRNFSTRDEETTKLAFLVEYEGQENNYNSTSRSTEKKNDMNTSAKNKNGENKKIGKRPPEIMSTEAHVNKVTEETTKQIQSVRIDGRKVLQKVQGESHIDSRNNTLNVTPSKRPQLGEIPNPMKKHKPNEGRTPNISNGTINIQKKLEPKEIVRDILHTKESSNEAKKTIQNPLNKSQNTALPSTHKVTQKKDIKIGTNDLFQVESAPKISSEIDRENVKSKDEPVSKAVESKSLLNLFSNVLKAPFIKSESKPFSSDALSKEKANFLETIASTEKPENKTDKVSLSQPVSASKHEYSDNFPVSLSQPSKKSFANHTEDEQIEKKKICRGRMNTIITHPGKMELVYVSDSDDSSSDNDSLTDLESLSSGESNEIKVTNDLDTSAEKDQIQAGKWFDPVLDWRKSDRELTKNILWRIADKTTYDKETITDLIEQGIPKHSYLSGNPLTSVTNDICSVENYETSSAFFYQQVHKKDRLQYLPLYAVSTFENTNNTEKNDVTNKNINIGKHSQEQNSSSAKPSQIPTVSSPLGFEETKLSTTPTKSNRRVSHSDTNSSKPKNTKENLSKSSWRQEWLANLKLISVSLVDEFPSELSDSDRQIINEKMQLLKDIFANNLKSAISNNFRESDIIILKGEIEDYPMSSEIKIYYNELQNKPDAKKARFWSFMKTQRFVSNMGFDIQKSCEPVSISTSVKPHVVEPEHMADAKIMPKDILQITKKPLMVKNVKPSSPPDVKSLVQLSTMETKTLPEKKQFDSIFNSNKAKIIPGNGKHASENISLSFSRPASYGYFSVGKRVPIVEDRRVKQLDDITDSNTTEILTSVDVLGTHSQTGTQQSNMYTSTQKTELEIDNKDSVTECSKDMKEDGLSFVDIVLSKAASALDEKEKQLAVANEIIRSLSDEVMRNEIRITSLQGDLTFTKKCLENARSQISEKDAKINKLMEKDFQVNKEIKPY

T1: Cdc13 tagged with (FLAG)3 (S. cerevisiae) (UniProt P32797)
T1 sequence: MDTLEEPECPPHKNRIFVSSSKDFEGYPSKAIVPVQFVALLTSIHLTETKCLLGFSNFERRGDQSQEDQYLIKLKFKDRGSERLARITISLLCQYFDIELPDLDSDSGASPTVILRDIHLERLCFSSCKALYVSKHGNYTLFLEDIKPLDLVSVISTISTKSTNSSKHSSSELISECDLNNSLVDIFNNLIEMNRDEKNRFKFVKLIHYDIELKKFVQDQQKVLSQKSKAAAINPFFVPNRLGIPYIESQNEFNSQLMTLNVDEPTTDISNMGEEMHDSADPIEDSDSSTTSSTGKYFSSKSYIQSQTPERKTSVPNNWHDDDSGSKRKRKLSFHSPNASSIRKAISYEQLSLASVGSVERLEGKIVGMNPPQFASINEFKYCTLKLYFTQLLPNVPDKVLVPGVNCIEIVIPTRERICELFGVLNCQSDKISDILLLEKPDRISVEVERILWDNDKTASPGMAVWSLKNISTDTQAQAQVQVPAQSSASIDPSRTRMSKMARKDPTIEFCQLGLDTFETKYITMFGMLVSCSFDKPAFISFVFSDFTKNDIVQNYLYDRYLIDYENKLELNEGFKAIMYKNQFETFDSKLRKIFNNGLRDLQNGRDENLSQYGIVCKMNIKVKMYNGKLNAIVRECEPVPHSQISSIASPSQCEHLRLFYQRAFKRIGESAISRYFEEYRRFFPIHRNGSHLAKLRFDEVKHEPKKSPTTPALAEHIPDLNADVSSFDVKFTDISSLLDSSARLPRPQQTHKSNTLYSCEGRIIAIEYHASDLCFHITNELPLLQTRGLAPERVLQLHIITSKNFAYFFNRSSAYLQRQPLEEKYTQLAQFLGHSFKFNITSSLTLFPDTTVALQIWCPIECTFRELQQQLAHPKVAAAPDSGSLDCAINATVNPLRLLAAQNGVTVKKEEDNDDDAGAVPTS


Tests used:
[1] = target: telomerase (S. cerevisiae) (UniProt P17214+Q06163+Q03096); assay: co-IP; co-IP of telomerase with factors encoded by nonessential genes (Figure S6 in File S1); bait not told
[2] = target: T1, Cdc13 tagged with (FLAG)3 (S. cerevisiae); assay: co-IP; anti-FLAG IP of Cdc13 tagged with (FLAG)3 from yeast extracts, Est1 tagged with (myc)12

| Molecule | binding [1] | binding [2] |
| --- | --- | --- |
| Sir4 (from UniProt P11978 1-1358) | no binding | – |
| Est1-W87E-(myc)12 (protein, UniProt P17214 1-699) MDNEEVNEECMRLFFKNARAHLDKHLTSRLTCDENAYITFRCFLDGIHRKSTRFLEELLLKQENMYHNNNYERINDSVIPLVLKLLELQIHEPTLQWFEHWFHDIMRLSNRRKFRVFRIFQKKMIQFFKITHRYYYDIIEHLCAKYDMNSVISNALFAKLNLMQYTDGLSTHEKIILNTSNPLTFSIVISLQRCVINLGSTHFYKTLLNKPSNKPKSVEGFEKSIRYLNIASLYLPAVGDTYFQRAKIYLITGKFSLYFFELVRGALVRIPSKCALNNLKDFILTPDFPERRRLMKKLAILVSKDLKGEKSFFEGQIVLQFLSIVEHTLVPQSWNASRASNCWLLKEHLQMAALKYHSGNINVILENLAATMGSFDLMFTTRKSKEQKNKLKYADLSERQVFFLDLSFDFIANIIDVVIKPSWQKNMEDFRYLAIIRLLMCWIKSYRSILQYTHRHRKFCTSFALLLNDLINSPLNCSGNIYSHRPKRSYLFREDIIFREFSCINFALTDFNDDYVYDSPDMINNIIGCPTLTKVLSPKEECVLRIRSIIFSGMKFLEKNDTGVIWNASKYKFDLISPNIKIKRQIALSEISSKINVKTQQERVVSSRKVEAKRDEQQRKRAGKIAVTELEKQFANVRRTKKLSPLPEKDGVSSELVKHAASRGRKTITGPLSSDFLSYPDEAIDADEDITVQVPDTPT | – | binds |
| Est1-D510R-(myc)12 (protein, UniProt P17214 1-699) MDNEEVNEECMRLFFKNARAHLDKHLTSRLTCDENAYITFRCFLDGIHRKSTRFLEELLLKQENMYHNNNYERINDSVIPLVLKLLWLQIHEPTLQWFEHWFHDIMRLSNRRKFRVFRIFQKKMIQFFKITHRYYYDIIEHLCAKYDMNSVISNALFAKLNLMQYTDGLSTHEKIILNTSNPLTFSIVISLQRCVINLGSTHFYKTLLNKPSNKPKSVEGFEKSIRYLNIASLYLPAVGDTYFQRAKIYLITGKFSLYFFELVRGALVRIPSKCALNNLKDFILTPDFPERRRLMKKLAILVSKDLKGEKSFFEGQIVLQFLSIVEHTLVPQSWNASRASNCWLLKEHLQMAALKYHSGNINVILENLAATMGSFDLMFTTRKSKEQKNKLKYADLSERQVFFLDLSFDFIANIIDVVIKPSWQKNMEDFRYLAIIRLLMCWIKSYRSILQYTHRHRKFCTSFALLLNDLINSPLNCSGNIYSHRPKRSYLFREDIIFREFSCINFALTRFNDDYVYDSPDMINNIIGCPTLTKVLSPKEECVLRIRSIIFSGMKFLEKNDTGVIWNASKYKFDLISPNIKIKRQIALSEISSKINVKTQQERVVSSRKVEAKRDEQQRKRAGKIAVTELEKQFANVRRTKKLSPLPEKDGVSSELVKHAASRGRKTITGPLSSDFLSYPDEAIDADEDITVQVPDTPT | – | binds |
| Est1-F511D-(myc)12 (protein, UniProt P17214 1-699) MDNEEVNEECMRLFFKNARAHLDKHLTSRLTCDENAYITFRCFLDGIHRKSTRFLEELLLKQENMYHNNNYERINDSVIPLVLKLLWLQIHEPTLQWFEHWFHDIMRLSNRRKFRVFRIFQKKMIQFFKITHRYYYDIIEHLCAKYDMNSVISNALFAKLNLMQYTDGLSTHEKIILNTSNPLTFSIVISLQRCVINLGSTHFYKTLLNKPSNKPKSVEGFEKSIRYLNIASLYLPAVGDTYFQRAKIYLITGKFSLYFFELVRGALVRIPSKCALNNLKDFILTPDFPERRRLMKKLAILVSKDLKGEKSFFEGQIVLQFLSIVEHTLVPQSWNASRASNCWLLKEHLQMAALKYHSGNINVILENLAATMGSFDLMFTTRKSKEQKNKLKYADLSERQVFFLDLSFDFIANIIDVVIKPSWQKNMEDFRYLAIIRLLMCWIKSYRSILQYTHRHRKFCTSFALLLNDLINSPLNCSGNIYSHRPKRSYLFREDIIFREFSCINFALTDDNDDYVYDSPDMINNIIGCPTLTKVLSPKEECVLRIRSIIFSGMKFLEKNDTGVIWNASKYKFDLISPNIKIKRQIALSEISSKINVKTQQERVVSSRKVEAKRDEQQRKRAGKIAVTELEKQFANVRRTKKLSPLPEKDGVSSELVKHAASRGRKTITGPLSSDFLSYPDEAIDADEDITVQVPDTPT | – | binds |
| Est1-R485E-(myc)12 (protein, UniProt P17214 1-699) MDNEEVNEECMRLFFKNARAHLDKHLTSRLTCDENAYITFRCFLDGIHRKSTRFLEELLLKQENMYHNNNYERINDSVIPLVLKLLWLQIHEPTLQWFEHWFHDIMRLSNRRKFRVFRIFQKKMIQFFKITHRYYYDIIEHLCAKYDMNSVISNALFAKLNLMQYTDGLSTHEKIILNTSNPLTFSIVISLQRCVINLGSTHFYKTLLNKPSNKPKSVEGFEKSIRYLNIASLYLPAVGDTYFQRAKIYLITGKFSLYFFELVRGALVRIPSKCALNNLKDFILTPDFPERRRLMKKLAILVSKDLKGEKSFFEGQIVLQFLSIVEHTLVPQSWNASRASNCWLLKEHLQMAALKYHSGNINVILENLAATMGSFDLMFTTRKSKEQKNKLKYADLSERQVFFLDLSFDFIANIIDVVIKPSWQKNMEDFRYLAIIRLLMCWIKSYRSILQYTHRHRKFCTSFALLLNDLINSPLNCSGNIYSHEPKRSYLFREDIIFREFSCINFALTDFNDDYVYDSPDMINNIIGCPTLTKVLSPKEECVLRIRSIIFSGMKFLEKNDTGVIWNASKYKFDLISPNIKIKRQIALSEISSKINVKTQQERVVSSRKVEAKRDEQQRKRAGKIAVTELEKQFANVRRTKKLSPLPEKDGVSSELVKHAASRGRKTITGPLSSDFLSYPDEAIDADEDITVQVPDTPT | – | binds |
| Est1-R488E-(myc)12 (protein, UniProt P17214 1-699) MDNEEVNEECMRLFFKNARAHLDKHLTSRLTCDENAYITFRCFLDGIHRKSTRFLEELLLKQENMYHNNNYERINDSVIPLVLKLLWLQIHEPTLQWFEHWFHDIMRLSNRRKFRVFRIFQKKMIQFFKITHRYYYDIIEHLCAKYDMNSVISNALFAKLNLMQYTDGLSTHEKIILNTSNPLTFSIVISLQRCVINLGSTHFYKTLLNKPSNKPKSVEGFEKSIRYLNIASLYLPAVGDTYFQRAKIYLITGKFSLYFFELVRGALVRIPSKCALNNLKDFILTPDFPERRRLMKKLAILVSKDLKGEKSFFEGQIVLQFLSIVEHTLVPQSWNASRASNCWLLKEHLQMAALKYHSGNINVILENLAATMGSFDLMFTTRKSKEQKNKLKYADLSERQVFFLDLSFDFIANIIDVVIKPSWQKNMEDFRYLAIIRLLMCWIKSYRSILQYTHRHRKFCTSFALLLNDLINSPLNCSGNIYSHRPKESYLFREDIIFREFSCINFALTDFNDDYVYDSPDMINNIIGCPTLTKVLSPKEECVLRIRSIIFSGMKFLEKNDTGVIWNASKYKFDLISPNIKIKRQIALSEISSKINVKTQQERVVSSRKVEAKRDEQQRKRAGKIAVTELEKQFANVRRTKKLSPLPEKDGVSSELVKHAASRGRKTITGPLSSDFLSYPDEAIDADEDITVQVPDTPT | – | binds |
| Pif1 (protein, UniProt P07271 46-859) RSNNFIQAQLKHPSILSKEDLDLLSDSDDWEEPDCIQLETEKQEKKIITDIHKEDPVDKKPMRDKNVMNFINKDSPLSWNDMFKPSIIQPPQLISENSFDQSSQKKSRSTGFKNPLRPALKKESSFDELQNNSISQERSLEMINENEKKKMQFGEKIAVLTQRPSFTELQNDQDDSNLNPHNGVKVKIPICLSKEQESIIKLAENGHNIFYTGSAGTGKSILLREMIKVLKGIYGRENVAVTASTGLAACNIGGITIHSFAGIGLGKGDADKLYKKVRRSRKHLRRWENIGALVVDEISMLDAELLDKLDFIARKIRKNHQPFGGIQLIFCGDFFQLPPVSKDPNRPTKFAFESKAWKEGVKMTIMLQKVFRQRGDVKFIDMLNRMRLGNIDDETEREFKKLSRPLPDDEIIPAELYSTRMEVERANNSRLSKLPGQVHIFNAIDGGALEDEELKERLLQNFLAPKELHLKVGAQVMMVKNLDATLVNGSLGKVIEFMDPETYFCYEALTNDPSMPPEKLETWAENPSKLKAAMEREQSDGEESAVASRKSSVKEGFAKSDIGEPVSPLDSSVFDFMKRVKTDDEVVLENIKRKEQLMQTIHQNSAGKRRLPLVRFKASDMSTRMVLVEPEDWAIEDENEKPLVSRVQLPLMLAWSLSIHKSQGQTLPKVKVDLRRVFEKGQAYVALSRAVSREGLQVLNFDRTRIKAHQKVIDFYLTLSSAESAYKQLEADEQVKKRKLDYAPGPKYKAKSKSKSNSPAPISATTQSNNGIAAMLQRHSRKRFQLKKESNSNQVHSLVSDEPRGQDTEDHILE | no binding | – |
